Reference: PubChem BioAssay AID485294 (National Center for Advancing Translational Sciences (NCATS), 2010)
Among all 370,000 compounds or so, about 150 (0.041%) were called active. This list was built around the results that the source calls inconclusive (neither active nor inactive); the mix of calls is not that of the screen. The call rests on the fitted dose curve; in most records, active means well fitted inhibition curve with a large enough effect; inconclusive means small, poorly fitted or top-dose-only effect; inactive means flat fitted curve, though single readings scatter. Potencies of inconclusive entries are left out as doubtful fits.

target: Beta-lactamase (Escherichia coli (strain K12)) (UniProt P00811); assay: qHTS Inhibitors of AmpC Beta-Lactamase (assay with detergent); details: AmpC hydrolysis of nitrocefin, absorbance 480 nm, 0.01% Triton; series mostly up to 114 µM; further: nearly all actives have a fitted effect of over 25% in size
Procedure, shortened: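 20 mM phosphate pH 7.0 + 0.01% (detergent screen) or 0.0001% Triton X-100; 5.3 nM AmpC reagent; cpd preinc 15 min RT; nitrocefin (800 uM stock) to start; A480 q20 s × 4 min; Activity was normalised to no-enzyme and no-compound control wells.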
Potency means the concentration at half of the fitted maximal effect; tags describe the fitted curve by direction and shape.

UniProt P00811, sequence (P00811 whole entry, looked up): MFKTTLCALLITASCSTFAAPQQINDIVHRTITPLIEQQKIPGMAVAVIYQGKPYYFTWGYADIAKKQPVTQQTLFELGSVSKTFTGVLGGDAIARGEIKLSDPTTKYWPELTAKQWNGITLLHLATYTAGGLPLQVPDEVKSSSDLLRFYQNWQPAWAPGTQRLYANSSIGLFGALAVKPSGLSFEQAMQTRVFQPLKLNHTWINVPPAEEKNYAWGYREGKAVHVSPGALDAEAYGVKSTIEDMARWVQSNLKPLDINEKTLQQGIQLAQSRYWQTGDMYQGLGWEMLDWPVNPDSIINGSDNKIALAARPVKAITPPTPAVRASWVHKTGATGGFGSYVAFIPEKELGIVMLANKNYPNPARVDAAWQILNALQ

Row | SMILES | Potency
1 | O=C(Oc1ccc(F)cc1)c1cccnc1 | inactive
2 | Cc1cc(C(=O)NC2CC2)c2ccccc2n1 | inconclusive [inhibitor, full curve]
3 | O=C(N/N=C/c1cccs1)C(=O)Nc1cccc(Cl)c1 | inconclusive [inhibitor, full curve]
4 | CCN(CC)c1nc(N2CCN(CCO)CC2)nc2ccccc12 | inconclusive [inhibitor, full curve, poor fit]
5 | Cc1nn(CC(=O)NCC2CCCO2)c(=O)c2ccccc12 (stereo unspecified) | inconclusive [inhibitor, full curve]
6 | O=c1c(Cl)c(NCCCO)cnn1-c1nc2ccccc2[nH]1 | inactive
7 | COc1ccc2nc(SCC(=O)NC(C)(C)C)[nH]c2c1 | inconclusive [inhibitor, partial curve, poor fit]
8 | Cc1c(Cl)cccc1NC(=O)c1cc(-c2cccc(Cl)c2)on1 | inactive
9 | CCC(Sc1nc2cc3c(cc2c(=O)n1CCCCCC(=O)NCc1ccc2c(c1)OCO2)OCO3)C(=O)NCCCOC (stereo unspecified) | inactive
10 | COc1ccc(Nc2nc(N)nc(CSCCO)n2)cc1 | inconclusive [inhibitor, full curve, poor fit]
11 | COc1ccc(Cl)cc1NC(=O)CN(C)C(=O)c1cc2c(s1)CCC(C)C2 (stereo unspecified) | inconclusive [inhibitor, partial curve, poor fit]
12 | COc1ccc(N(C(=O)Nc2ccc(Cl)cc2)C2=NCCC2)cc1 | inactive
13 | CCOc1ccc(-c2cn(-c3ccc(OC)cc3)c(SC)n2)cc1 | inactive
14 | O=C(NCCN1C(=O)S/C(=C/c2cccnc2)C1=O)c1cccs1 | inactive
15 | CC(C)(C)c1csc(N/N=C/c2cccnc2)n1 | inconclusive [inhibitor, single point]
16 | CC(C)Oc1ccc(CNC2CCOC(C)(C)C2)cc1 (stereo unspecified) | inconclusive [inhibitor, full curve, poor fit]
17 | Cc1nn2c(=O)cc(COC(=O)c3ccc(NC(=O)CCc4ccccc4)cc3)nc2s1 | inactive
18 | C/C(=C\C(=O)c1c(O)cc(C)oc1=O)N(C)C | inactive
19 | O=C(CNC(=O)c1cccc(Br)c1)N/N=C/c1ccc[nH]1 | inconclusive [inhibitor, full curve]
20 | CC(C)N(C)S(=O)(=O)c1ccc(NC(=O)CSC(=S)N2CCCC2)cc1 | inconclusive [inhibitor, full curve, poor fit]
21 | Cc1ccccc1S(=O)(=O)NCC1CCCO1 (stereo unspecified) | inconclusive [inhibitor, full curve, poor fit]
22 | COc1ccccc1C(=O)Nc1ccnn1C1CCN(C(C)CSC)CC1 (stereo unspecified) | inconclusive [inhibitor, full curve]
23 | CCCS(=O)(=O)NCc1cn2c(C)csc2n1 | inconclusive [inhibitor, partial curve]
24 | CCCC(=O)Nc1nn(C)c2nc3c(C)cccc3cc12 | inconclusive [inhibitor, full curve, poor fit]

Row | SMILES | Potency
25 | CCCCn1c(N)c(N(CC(C)C)C(=O)COC(=O)C2(c3ccccc3)CC2)c(=O)[nH]c1=O | inconclusive [inhibitor, full curve, poor fit]
26 | CC1Cc2cc(S(=O)(=O)CCC(=O)Nc3cccc(F)c3)ccc2N1C(=O)C1CC1 (stereo unspecified) | inconclusive [inhibitor, single point]
27 | COc1ccc(S(=O)(=O)NCc2ccc(C(=O)N3CCc4ccccc4C3)cc2)cc1 | inactive
28 | CCSc1nc(N)c2c3c(sc2n1)CN(C)CC3 | inactive
29 | CCCc1cc(=O)[nH]c(SCC(=O)Nc2sc3c(c2C#N)CCC(C)C3)n1 (stereo unspecified) | inconclusive [inhibitor, full curve, poor fit]
30 | COC(=O)c1ccc(-n2c(C)cc(C(=O)CSc3ccc(NC(C)=O)cc3)c2C)cc1 | inconclusive [inhibitor, single point]
31 | CCOc1ccc(OCCC(=O)N(CC)CC(=O)NCc2cccs2)cc1 | inactive
32 | Clc1cccc(Cl)c1NC1=NCCC1 | inconclusive [inhibitor, full curve, poor fit]
33 | CCC(C)[C@H](NC(=O)NCCCN1CCOCC1)C(=O)OC (stereo partly specified) | inconclusive [inhibitor, full curve, poor fit]
34 | Cc1ccccc1-n1nc(C(=O)O)c(C)c(C#N)c1=O | inconclusive [inhibitor, full curve, poor fit]
35 | CCCS(=O)(=O)c1nc(S(=O)(=O)c2ccc(C)cc2)c(N2CCC(C)CC2)s1 | inactive
36 | CC(=O)Nc1sc(N)nc1-c1ccccc1 | inconclusive [inhibitor, full curve, poor fit]
37 | Cc1[nH]c2ccccc2c1C(c1ccccn1)N1CCCC1 (stereo unspecified) | inactive
38 | COc1ccc(OC)c(NC(=O)c2cc(-c3cc(C)ccc3O)n[nH]2)c1 | inactive
39 | CCc1ccc(NC(=O)Cc2c(C(=O)O)n(C)c3ccccc23)cc1 | inactive
40 | Cn1c(SCC(=O)Nc2cccc(F)c2)nnc1-c1cccnc1 | inactive
41 | Cc1cccc(C)c1NC1=NC(C)(C)N=C(N)N1 | inconclusive [inhibitor, partial curve, poor fit]
42 | C=C(C)CSc1nc2c(c(=O)[nH]c(=O)n2C)n1CCC(C)C | inconclusive [inhibitor, full curve, poor fit]
43 | CN1CCN(c2cc(=O)n(Cc3ccc(F)cc3)c(=O)[nH]2)CC1 | inactive
44 | O=C(COc1ccc(Cl)cc1)NCCc1csc(-c2ccc(C(F)(F)F)cc2)n1 | inactive
45 | COc1cccc(N=Nc2c(N)[nH]n3c(=O)cc(-c4ccccc4)nc23)c1 | inconclusive [inhibitor, full curve]
46 | Cc1cc(C)c(NC(=O)CN2CCN(C)CC2)c(C)c1 | inconclusive [inhibitor, full curve, poor fit]
47 | CCOc1nc2cnccc2n(CC(=O)Nc2ccccc2F)c1=O | inconclusive [inhibitor, single point]
48 | CCOC(=O)c1c(NC(=O)Nc2ccc(F)cc2)sc2c1CCN(C)C2 | inactive

Row | SMILES | Potency
49 | COC(=O)c1ccccc1NC(=S)NC(NC(=O)c1ccco1)C(Cl)(Cl)Cl (stereo unspecified) | inactive
50 | CCCSc1nc(C)c(CC(=O)OCC)c(=O)[nH]1 | inconclusive [inhibitor, full curve, poor fit]
51 | COc1cc(C(=O)n2nc(C)cc2C)cc(OC)c1OC | inconclusive [inhibitor, partial curve, poor fit]
52 | O=C(OCC(=O)N1CCCC1=O)c1cc(S(=O)(=O)N2CCOCC2)ccc1Cl | inconclusive [inhibitor, full curve, poor fit]
53 | Cc1cccc(NC(=O)c2cccc(N3C(=O)C4C5C=CC(C6CC56)C4C3=O)c2)c1 (stereo unspecified) | inconclusive [inhibitor, full curve]
54 | CC(=O)c1cccc(-n2nnnc2SCC(=O)Nc2ccccc2N2CCCCC2)c1 | inconclusive [inhibitor, full curve]
55 | CNC(=S)NNC(=O)Cc1ccccc1 | inactive
56 | Cc1cc([N+](=O)[O-])ccc1NC(=O)CN1CCN(Cc2ccccc2)CC1 | inconclusive [inhibitor, partial curve]
57 | c1ccc(OCc2nnc3sc(-c4cccs4)nn23)cc1 | inconclusive [inhibitor, full curve, poor fit]
58 | CSC1=NCCN1C(=O)c1c(F)cccc1Cl | inconclusive [inhibitor, partial curve, poor fit]
59 | O=C(CSc1nc2ccccc2c(=O)n1NC(=O)c1ccccc1)c1ccccc1 | inconclusive [inhibitor, single point]
60 | CCCOc1ccc(/C=N/Nc2ccccn2)cc1OC | inactive
61 | Fc1ccccc1N1CCN(CC2CCCCC2)CC1 | inconclusive [inhibitor, full curve, poor fit]
62 | CC(O)CNc1nc2c(c(=O)n(C)c(=O)n2C)n1CCc1ccccc1 (stereo unspecified) | inconclusive [inhibitor, full curve, poor fit]
63 | CC1=C(C(=O)Nc2ccccc2C)C(c2ccccc2)NC(=O)N1 (stereo unspecified) | inconclusive [inhibitor, partial curve, poor fit]
64 | CCOC(=O)N1CCN(C(=O)CSc2nnc(-c3ccc(C)c(C)c3)o2)CC1 | inconclusive [inhibitor, full curve, poor fit]
65 | COc1ccc(Cl)cc1NC(=O)Nc1ccc(Br)cn1 | inconclusive [inhibitor, full curve]
66 | CN(Cc1ccccc1)C(=O)C(=O)Nc1ccc2nc3n(c(=O)c2c1)CCCCC3 | inactive
67 | N#Cc1ccc(CSCC(=O)O)cc1 | inconclusive [inhibitor, partial curve, poor fit]
68 | O=C(CN(Cc1ccco1)C(=O)c1ccc(Cl)cc1)Nc1c(Cl)cc(Cl)cc1Cl | inconclusive [inhibitor, partial curve, poor fit]
69 | COc1cc(Cl)c(NS(=O)(=O)c2c(C(=O)N3CCCC3)c(C)n(C)c2C)c(OC)c1 | inconclusive [inhibitor, full curve, poor fit]
70 | O=C(NC1CCCCC1)c1cccc(S(=O)(=O)N2CCCCC2)c1 | inconclusive [inhibitor, full curve, poor fit]
71 | O=C(c1ccc(S(=O)(=O)NCc2ccco2)cc1)N1CCN(c2ccc(F)cc2)CC1 | inconclusive [inhibitor, partial curve]
